Literature values as cited in patent US10105442B2, “Treatment of diabetes type 1 using GLP-1 and anti-IL-21” (Novo Nordisk A/S, priority 2014, dated 2018).

Target: IL-21 (Homo sapiens, UniProt Q9HBE4)
Conditions: cited from earlier work

Sequence of IL-21 (Q9HBE4 25-162): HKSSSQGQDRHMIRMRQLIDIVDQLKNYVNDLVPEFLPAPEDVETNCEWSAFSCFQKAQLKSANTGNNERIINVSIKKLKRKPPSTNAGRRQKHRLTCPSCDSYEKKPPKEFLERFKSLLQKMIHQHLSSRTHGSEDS

B1: mAb 14: human anti-IL-21 antibody competing with γC, WO2010055366 clone 366.328.10.63, light and heavy chains SEQ ID NOs 4+5 (IgG4) (antibody)
heavy: EVQLVESGGGLVKPGGSLRLSCAASGFIFSSYSMNWVRQAPGKGLEWVSSITSGSYYIHYADSVKGRFTISRDNAKNSLYLQMNSLRAEDTAVYYCVRERGWGYYGMDVWGQGTTVTVSSASTKGPSVFPLAPCSRSTSESTAALGCLVKDYFPEPVTVSWNSGALTSGVHTFPAVLQSSGLYSLSSVVTVPSSSLGTKTYTCNVDHKPSNTKVDKRV[sequence of human IgG4 Fc omitted]
light: AIQLTQSPSSLSASVGDRVTITCRASQDIDSALAWYQQKPGKAPKILIHDASSLESGVPSRFSGSGSGTDFTLTISSLQPEDFATYYCQQFNSYPYTFGQGTKLEIKRTVAAPSVFIFPPSDEQLKSGTASVVCLLNNFYPREAKVQWKVDNALQSGNSQESVTEQDSKDSTYSLSSTLTLSKADYEKHKVYACEVTHQGLSSPVTKSFNRGEC
modifications: “mAb 14” heavy chain of the IgG4 isotype; “mAb 14”, light chain
Affinity to IL-21 (in words): in the nanomolar range
